Measurements as given in the antibiotic and cytotoxicity screens of Wong et al. (2023).
Some of the results follow.

system: HSkMC (human skeletal muscle cells); test: cytotoxicity call (relative viability < 0.9); conditions: 10 µM

| Compound | cytotoxicity call |
| --- | --- |
| C[C@@H]1CCCCO[C@H](CN(C)Cc2ccc3c(c2)OCO3)[C@@H](C)CN([C@H](C)CO)C(=O)c2cc(NS(=O)(=O)c3ccc(Cl)cc3)ccc2O1 | inactive |
| C[C@@H]1CN([C@@H](C)CO)S(=O)(=O)c2ccc(C#CC3CCCCC3)cc2O[C@@H]1CN(C)C(=O)Cc1ccncc1 | inactive |
| O=C(NCCCN1CCOCC1)C(=O)NC1CC1 | inactive |
| NCCCC[C@H](NC(=O)[C@@H]1CCCN1C(=O)[C@@H]1CSSC[C@H](N)C(=O)N[C@@H](Cc2ccc(O)cc2)C(=O)N[C@@H](Cc2ccccc2)C(=O)N[C@@H](CCC(N)=O)C(=O)N[C@@H](CC(N)=O)C(=O)N1)C(=O)NCC(N)=O | inactive |
| C[C@H](NC(=O)C[C@H]1CC[C@@H](NC(=O)CN2CCOCC2)[C@@H](CO)O1)c1ccccc1 | inactive |
| C[C@H]1CN([C@@H](C)CO)C(=O)c2cccc(NS(=O)(=O)c3ccc(F)cc3)c2O[C@@H]1CN(C)CC1CC1 | inactive |
| COc1ccc(S(=O)(=O)N(C)C[C@H]2Oc3ccc(NC(=O)C4CC4)cc3CC(=O)N([C@@H](C)CO)C[C@@H]2C)cc1 | inactive |
| C[C@@H]1CN([C@@H](C)CO)C(=O)c2cc(NC(=O)Nc3ccc(F)cc3)ccc2O[C@H]1CN(C)S(C)(=O)=O | inactive |
| C[C@H]1CN([C@@H](C)CO)C(=O)c2cccc(NC(=O)Nc3ccc(C(F)(F)F)cc3)c2O[C@H]1CN(C)Cc1ccc(C(=O)Nc2ccccc2N)cc1 | inactive |
| C[C@@H]1CN([C@H](C)CO)C(=O)c2cc(NC(=O)Cc3ccccc3)ccc2O[C@@H]1CN(C)C(=O)Nc1cccc2ccccc12 | inactive |
